± gives the standard deviation of the averaged measurements. The list shows a part of the results.

The subject of this assay is PfAP2-G AP2 domain (GST-tagged). The experiment in a line: gcPBM binding intensity (ln(normalized median fluorescence intensity)); higher = stronger DNA binding. In short, it runs like this:
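Binding intensity is the highest Masliner-normalised natural-log median intensity over replicate spots in either probe orientation. To obtain it, GST-tagged P. falciparum DNA-binding domains made in E. coli were incubated for 1 h on an Agilent 4 × 180k array of primer-extended double-stranded 36-bp intergenic genomic probes plus negative controls. Detection used Alexa488 anti-GST antibody with scanning at 488 nm.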
With “TTAATATAATAGAAGTGTACACACATATTTATGTGT [XGTACX_site6672]”, the “gcPBM binding intensity (ln)” value came out at 11.5 ± 0.78.
Regarding “AATCACAACAGACACACACACAAAAAAAAAAAAAAA [CACACA_site1442]”, the “gcPBM binding intensity (ln)” value worked out at 10.2 ± 0.71.
As to “GGTGGAAACAATTACACACACACAAAAAAAAAAAAA [CACACA_site3208]”, the “gcPBM binding intensity (ln)” value came out at 10.1 ± 0.47.
As to “TAATAATAAAAATAAACACACATATATCTGTATTTA [CACACA_site5572]”, the “gcPBM binding intensity (ln)” value is 9.49 ± 0.26.
“TATTTATAAACATACGCACACATTAAAATATATATA [CACACA_site6051]”: the “gcPBM binding intensity (ln)” value was determined as 10.2 ± 0.23.
Regarding ATATATATATATATAGTGCATAAAATAAGTTTCTAA, the “gcPBM binding intensity (ln)” value is 10.1 ± 0.37.
Take “AAAAAAAAAAAAAAATGTACATTTTGAAAGGATATA [XGTACX_site8217]”: the “gcPBM binding intensity (ln)” value amounted to 10.9 ± 0.47.
As for “ATGCATTATTAGAATACACACCATACGCATATTTAT [CACACA_site4319]”, the “gcPBM binding intensity (ln)” value came to 10.145 ± 0.007.
On to “TTTTTATAAATACACATAAATATATATATATATATA [TGCATGCA_negctrl_site393]”, for which the “gcPBM binding intensity (ln)” value was 10.1 ± 0.42.
Turning to “ACACAAAAAAATATATATATATATATATATATGTTA [CACACA_negctrl_site55]”, the “gcPBM binding intensity (ln)” value came out at 9.62 ± 0.17.
Turning to “AGAAAAAAAAAAAAATGTACAGACTTTTTCTTATAA [XGTACX_site6481]”, the “gcPBM binding intensity (ln)” value was found to be 11 ± 0.55.
As for “AAAAAAGATAATTATGCACACACACCCACCCACCCA [CACACA_site8825]”, the figure is 10.8 ± 0.47; as for “TAAAGAAAAAGAGAATGTACATGAGAAAAGTATACT [XGTACX_site7472]”, 11.1 ± 0.56; as for “TATAAACCAATGAACACACAAACATATATATATATA [CACACA_site3168]”, 10.2 ± 0.46.
Take “TCTTTTTATATTTATTGTACATAAAAAATAAAACAT [XGTACX_site4073]”: the “gcPBM binding intensity (ln)” value turned out to be 11.2 ± 0.82.
Under “ATATGTATATATAAAAGTACGCGTAAAAAAAAAAAA [XGTACX_site5377]” stands 11.7 ± 1.3; under “TTTTTTTTTCTTTCTTTCTTTTGTAAAAACCTCAAA [CACACA_negctrl_site723]”, 9.97 ± 0.085.
“TATACACCCTAAAATACACACACACCCACCCATATA [CACACA_site9380]”: the “gcPBM binding intensity (ln)” value was 10.4 ± 0.2.
For the sequence “TAAATATATAAATACACACACATACACAAAAAAAAA [CACACA_site5890]”, the “gcPBM binding intensity (ln)” value was 10.2 ± 0.14.
Turning to “AAGTTAGTATTCTGCTGTACTTCTATATATAAGTGT [XGTACX_site7678]”, the “gcPBM binding intensity (ln)” value stood at 11.6 ± 1.1.
As for “TTATATACATAAAAATGTACTTTTTATAAAATATAT [XGTACX_site8281]”, the “gcPBM binding intensity (ln)” value was 11.2 ± 1.
“TTTTCTTACATCTTATAAAAAAAAATATATATTATA [GTGCAC_negctrl_site118]”: the “gcPBM binding intensity (ln)” value was found to be 9.725 ± 0.078.
Take “GTCTAACAACCAAACGCACACACACTAATAAAAAAA [CACACA_site8026]”: the “gcPBM binding intensity (ln)” value came to 10.4 ± 0.48.
Turning to “ACAACATTTCTCAAATGTACATAATATAATTTATAT [XGTACX_site3224]”, the “gcPBM binding intensity (ln)” value came out at 10.8 ± 0.49.
Take “TATTAATTCTTAAATTTTTTTTTTTAATTCCTAGGA [CACACA_negctrl_site879]”: the “gcPBM binding intensity (ln)” value was determined as 9.46.
As for “GAATGAATCAATGTTTGTACTCAACAAATTATAAGG [XGTACX_site5122]”, the figure is 11.2 ± 0.76; as for “GCCTTCCTTCTAAATGCACACGGAAAGTATAAATGT [CACACA_site8797]”, 10.1; as for TATATATAATACAGTATGCACTATTTTTATTAAAAA, 10 ± 0.18.
Consider “CAATAATTTTTTAAATGTACTTTATTATAATTTAAT [XGTACX_site135]”, for which the “gcPBM binding intensity (ln)” value was found to be 11.1 ± 0.62.
For “TATTTTAAAACAAAAATATAATTTCATAAAAATATA [CACACA_negctrl_site394]”, the “gcPBM binding intensity (ln)” value came out at 9.61 ± 0.071.
Under “TAATATATATATTTATGTACATATAAATTTTCTCCT [XGTACX_site4496]” stands 11.3 ± 0.71; under “TTTTTGTAAAATAAACGTACAAAACAATTGTTCATT [XGTACX_site6537]”, 11.3 ± 0.81; under “TATCTGTATGTATGTACACACAAAAAATGGAATATA [CACACA_site5947]”, 11.4 ± 0.82.
As for “ATAAAATAATCTTATGCACACCAAAAATTTATATAA [CACACA_site8332]”, the figure is 10.2 ± 0.12; as for “ATATATCAAAAATGATGACATAAATATATTAATTTA [TGCATGCA_negctrl_site259]”, 9.71 ± 0.12; as for “AACAGATAAAAGGGTACACACATATATACATGTACA [CACACA_site225]”, 11.6 ± 0.88.
Under “ATATAATAAGGTTAAGCACACATATTACATATATAA [CACACA_site9110]” stands 10 ± 0.18; under “TTGTATATATTTCCTTGTACGTAATAATTCTTATTG [XGTACX_site3938]”, 11.3 ± 0.71.
“TTTCACACTATTTCATGTACACATAAAATTATATAT [XGTACX_site8692]”: the “gcPBM binding intensity (ln)” value is 11.4 ± 0.94.
As to “TAAATATAATAAAAGTGTACTTACACTTACATATAA [XGTACX_site1206]”, the “gcPBM binding intensity (ln)” value amounted to 11.2 ± 0.88.
“TTTTATTCCGTTTCAAAATAAGAAAAAAAAAAAAAT [CACACA_negctrl_site1199]”: the “gcPBM binding intensity (ln)” value was 9.93 ± 0.36.
As to “CTTATATATACGTGCACACATATATATAAGATATAT [CACACA_site1752]”, the “gcPBM binding intensity (ln)” value was determined as 10.5 ± 0.46.
For “AAAAATATAAATGACACACACTTAAAAACAAAGAAA [CACACA_site4540]”, the “gcPBM binding intensity (ln)” value is 10.1 ± 0.11.
In the case of “ATTTAAAAAAAAAAAAATAAATAACTTGAAAAACAA [GTGCAC_negctrl_site318]”, the “gcPBM binding intensity (ln)” value is 9.47 ± 0.057.
